Results published in PubChem BioAssay AID624296 (National Center for Advancing Translational Sciences (NCATS), 2012).
Screen size: about 350,000 compounds; about 9,900 (2.8%) were called active. This list was built around the results that the source calls inconclusive (neither active nor inactive); the mix of calls is not that of the screen. Calls follow the shape of the dose curve; as a rule, active = well fitted activation curve with a large enough effect; inconclusive = small, poorly fitted or top-dose-only effect; inactive = no such curve, though single readings can be large or run the other way. No potency is given beside an inconclusive call; the fits are too rough.

Experiment: A quantitative high throughput screen for small molecules that induce DNA re-replication in MCF 10a normal breast cells. Also: nearly all actives have a fitted effect of over 50% in size. As to activity, positive = re-replication: % of control where 0% means no effect.
Details: MCF 10A DNA re-replication, Hoechst nuclear intensity, 48 h; activity, positive = re-replication: at 46.1 µM (top of the series)
Potency is read from the fitted curve at half-maximal effect; tags tell the direction and shape of the fitted curve.

SMILES	Potency	activity, positive = re-replication
CCCCOc1cc(NCc2ccccc2)c2ncn(C(C)C)c2c1	inconclusive [activator, single point]	–
Cc1cccc(N2CCN(C(=S)Nc3ccc4nc(N5CCN(C)CC5)cc(C)c4c3)CC2C)c1 (configuration not stated)	active: 18.4 µM	–
CC(=O)Nc1ccc(C(=O)NCC2(N3CCCCC3)CCCCC2)cc1	–	inconclusive: 56.8% [activator]
O=c1cc(O)c2c(=O)n(C3CCCCC3)c3ccccc3c2o1	inconclusive [activator, partial curve, poor fit]	–
O=C(CN1CSCC1=O)N1CCN(S(=O)(=O)c2cccc(F)c2)CC1	–	inactive: 2.24%
O=C(c1ccccn1)N(Cc1ccco1)C1(C(=O)NC2CCCC2)CCCCC1	–	inactive: 5.84%
C[C@H](CO)N1C[C@H](C)[C@@H](CN(C)C(=O)Nc2ccc(C(F)(F)F)cc2)Oc2ccc(NS(=O)(=O)c3cccs3)cc2C1=O	inconclusive [activator, full curve, poor fit]	–
COc1cc(/C=C2\Oc3cc(O)ccc3C2=O)ccc1O	inconclusive [activator, single point]	–
Cc1ccc(-n2c(SCC(N)=O)nnc2-c2ccccn2)cc1C	inconclusive [activator, partial curve, poor fit]	–
CCOc1cc(Br)c(C(=O)O)cc1OCC	–	inactive: -2.41%
C#CCOCCOCCOCCNc1nc(N2CCN(C(=O)[C@H](CCC(=O)O)n3cc(C(N)[C@H](C)CC)nn3)CC2)nc(N2CCN(C(=O)[C@H](Cc3ccc(O)cc3)n3cc(C(N)[C@H](C)CC)nn3)CC2)n1 (some centres not stated)	inconclusive [activator, full curve, poor fit]	–
CCOC(=O)c1ccc(NC(=O)N2CCN(S(C)(=O)=O)CC2)cc1	–	inactive: -6.69%
Cc1ccccc1NC1=C(Cl)C(=O)N(C2CCCCC2)C1=O	inconclusive [activator, partial curve, poor fit]	–
Fc1cc(NCc2ccccc2)nc(NCc2ccccc2)n1	inconclusive [activator, partial curve, poor fit]	–
CSc1n[nH]c(NCc2cccs2)n1	–	inactive: -1.68%
O=C(Nc1ccc2c(c1)Cc1ccccc1-2)c1ccncc1	inconclusive [activator, partial curve, poor fit]	–
O=C1CCCS(=O)(=O)c2ccccc21	–	inactive: 5.09%
CCOC(=O)N1CCC2CC1c1cc(Cl)ccc12 (configuration not stated)	inconclusive [activator, partial curve, poor fit]	–
O=C(CSc1nn(-c2ccc(F)cc2)c(=S)s1)N1CCN(C(=O)c2ccco2)CC1	inconclusive [activator, full curve, poor fit]	–
CC(C)OCCCN1CC(=O)N2C(c3cccc([N+](=O)[O-])c3)c3[nH]c4ccccc4c3C[C@H]2C1=O (some centres not stated)	–	inactive: 0.558%
CCN(CC)CCCN=Cc1c(-c2ccccc2)[nH]n(-c2nc3ccccc3s2)c1=O	–	inactive: -0.347%
CCC(=O)NCCc1nc2ccccc2[nH]1	inconclusive [activator, partial curve]	–
Nc1nc(N2CCN(C/C=C/c3ccccc3)CC2)nc2ccccc12	inconclusive [activator, single point]	–

SMILES	Potency	activity, positive = re-replication
Cc1ccccc1N/N=C/c1c(C)nc2ccccn12	active: 16.4 µM	–
CCCc1cc(=O)oc2cc(OCC(=O)N3CCN(C(=O)C4COc5ccccc5O4)CC3)ccc12 (configuration not stated)	–	inactive: -3.19%
COCCNC(=O)c1cc2c(=O)n3cccc(C)c3nc2n1C	inconclusive [activator, partial curve, poor fit]	–
O=C(CSc1nc2scc(-c3ccco3)c2c(=O)n1-c1ccccc1)N1CCOCC1	inconclusive [activator, partial curve, poor fit]	–
COc1ccc2c(Cl)c(C(=O)NCCCn3ccnc3)sc2c1	inconclusive [activator, full curve, poor fit]	–
Cc1ccc(S(=O)(=O)Nc2ccccc2/C=N/c2nc3ccccc3n2C)cc1	active: 13 µM	–
Cc1cc(S(=O)(=O)N2CCOCC2)ccc1OCC(=O)N1CCC(C)CC1	inconclusive [activator, single point]	–
CC(=O)Nc1ccc(NC(=O)C2CCCN2/C=C/C(=O)C(F)(F)F)cc1 (configuration not stated)	–	inactive: -5.46%
Cc1ccccc1Nc1nc(N)nc(CCl)n1	inconclusive [activator, single point]	–
O=C(NC(=S)Nc1ccc2c(c1)OCCO2)c1ccc(F)cc1Cl	–	inactive: 13.5%
Cc1ccc(NC(=O)CN(C)C(=O)c2ccc(NS(=O)(=O)c3cccc([N+](=O)[O-])c3)cc2)cc1	–	inactive: -6.8%
CC(=O)N1c2ccccc2C(C)(c2ccccc2)CC1(C)C (configuration not stated)	inconclusive [activator, partial curve, poor fit]	–
COC(C(=O)Nc1ccc(S(=O)(=O)Nc2ccc(C)c(C)c2)cc1)c1ccccc1 (configuration not stated)	inconclusive [activator, full curve]	–
O=C(Nc1nccs1)c1cc(-c2ccccc2)nn1-c1ccccc1	–	inactive: 14.9%
CCN(CC)S(=O)(=O)c1ccc2c(c1)nc(SCC(=O)NCC1CCCO1)n2CC (configuration not stated)	–	inactive: 1.01%
Cc1cccc(N2C(N)=C(C#N)C(C#N)(C#N)C2c2ccccc2)c1 (configuration not stated)	inconclusive [activator, partial curve, poor fit]	–
O=[N+]([O-])c1ccc(N/N=C/c2cccnc2)cc1	–	inactive: 12.7%
O=C(N/N=C/c1c(O)ccc2ccccc12)c1[nH]ncc1Br	inconclusive [activator, single point]	–
C=CCNC(=S)N1CCN(C2CCCCC2)CC1	–	inactive: 1.08%
Cc1ccccc1NC(=O)c1c(C)[nH]c(=S)c(C#N)c1-c1ccc(Cl)cc1	inconclusive [activator, single point]	–
COc1cc(/C=C2/NC(=O)N(Cc3ccccc3F)C2=O)cc(OC)c1O	inconclusive [activator, partial curve, poor fit]	–
Cc1ccccc1CS(=O)(=O)CCC(=O)NCCCN1CCN(c2ccccc2F)CC1	inconclusive [activator, partial curve, poor fit]	–
S=C(Nc1ccc(Cl)cc1)c1nc2ccccc2s1	inconclusive [activator, single point]	–

SMILES	Potency	activity, positive = re-replication
CCn1c(=O)c(C(=O)CN(C)CC(=O)Nc2ccccc2Br)c(N)n(Cc2ccccc2)c1=O	inconclusive [activator, partial curve, poor fit]	–
Cc1ccc2nc(NCc3ccccc3)c(C#N)cc2c1	active: 14.6 µM	–
COc1cc2nc(C3CCC3)n(N)c(=O)c2cc1OC	inconclusive [activator, partial curve, poor fit]	–
CCOC(=O)NC(=O)c1cn(N(C)c2ncc(C(F)(F)F)cc2Cl)c(=O)[nH]c1=O	inconclusive [activator, partial curve]	–
COc1ccc(N(CC(=O)NCC(C)C)S(=O)(=O)c2ccccc2)cc1	inconclusive [activator, full curve, poor fit]	–
CN(Cc1cccnc1)Cc1cn[nH]c1-c1ccc(-c2ccccc2)cc1	inconclusive [activator, single point]	–
Cc1cccc(NC(=S)NC(=O)c2ccc(Br)o2)c1	–	inactive: 19.9%
Cc1ccc(C(=O)Oc2coc(CSc3nnc(NC(=O)c4cccs4)s3)cc2=O)cc1	inconclusive [activator, single point]	–
CC(C)=CCN1CCN(Cc2cccnc2)CC1CCO (configuration not stated)	–	inactive: 0.759%
Cc1nn(Cc2c(F)c(F)c(F)c(F)c2F)c(C)c1NC(=O)c1nn(C)cc1[N+](=O)[O-]	inconclusive [activator, single point]	–
CCCCOC(=O)c1ccc(NC(=S)NC(=O)c2c(Br)c(C)nn2C)cc1	inconclusive [activator, partial curve, poor fit]	–
CC1CC(C)CN(C(=O)CSc2nnc(-c3ccc(Cl)cc3)o2)C1 (configuration not stated)	–	inactive: 4.99%
CC(=O)N(c1nc(/C=C\C(=O)O)cs1)c1ccccc1F	–	inactive: 1.74%
CN(CCCNC(=O)c1cc2c(Cl)nc3ccccc3c2s1)Cc1ccccc1	inconclusive [activator, single point]	–
COc1ccc([C@H]2CC(=O)C=C(c3ccc(Br)c4ccccc34)C2)cc1	inconclusive [activator, single point]	–
O=C(Nc1ccccc1N1CCOCC1)c1cccc(S(=O)(=O)N2CCOCC2)c1	inconclusive [activator, full curve, poor fit]	–
COc1cccc(-c2nc(-c3ccc4c(c3)-c3ccccc3S4(=O)=O)c(-c3ccccc3)[nH]2)c1OC	inconclusive [activator, partial curve, poor fit]	–
CC(=O)Nc1ccc(-c2csc(NC(=O)CCCc3cccs3)n2)cc1	inconclusive [activator, single point]	–
Cc1ccc(C)n1CCN1CCN(C(=O)CSc2nc3ccccc3nc2N2CCOCC2)CC1	inconclusive [activator, partial curve, poor fit]	–
CCOc1cc(/C=C2\C(=O)N(c3cccc(C(F)(F)F)c3)C(=O)c3ccccc32)ccc1O	inconclusive [activator, single point]	–
Cc1cc(C(=O)C(=O)N(C)C)c(C)n1-c1ccc([N+](=O)[O-])cc1	–	inactive: -3.97%
